T1: human IL-12 (human, UniProt P29459 23-219; P29460 23-328)
T1 sequence (looked up) 1: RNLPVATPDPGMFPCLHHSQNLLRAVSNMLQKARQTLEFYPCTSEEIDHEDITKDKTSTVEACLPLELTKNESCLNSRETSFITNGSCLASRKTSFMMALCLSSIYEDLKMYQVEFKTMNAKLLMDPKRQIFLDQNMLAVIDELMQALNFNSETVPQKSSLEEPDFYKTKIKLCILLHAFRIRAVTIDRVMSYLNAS
T1 sequence (looked up) 2: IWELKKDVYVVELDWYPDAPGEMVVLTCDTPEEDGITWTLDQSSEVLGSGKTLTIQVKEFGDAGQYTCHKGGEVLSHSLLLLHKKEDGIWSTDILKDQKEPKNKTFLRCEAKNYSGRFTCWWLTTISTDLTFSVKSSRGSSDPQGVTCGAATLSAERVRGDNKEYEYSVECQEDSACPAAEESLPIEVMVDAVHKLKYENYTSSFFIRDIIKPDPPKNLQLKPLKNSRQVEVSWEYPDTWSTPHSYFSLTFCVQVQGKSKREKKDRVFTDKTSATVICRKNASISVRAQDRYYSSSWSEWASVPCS


Columns and labels:
Test in all cases: cell-based or functional assay
human IL-12 [1] = target: T1, human IL-12
human IL-18 [2] = target: T2, human IL-18 (human, UniProt Q14116 37-193)
human IL-12 [3] = target: T1, human IL-12; remark: listed apart in the source
human IL-18 [4] = target: T2, human IL-18; remark: listed apart in the source

Potency (IC50), IL-12-induced IFN-γ production by PHA blast cells (human IL-12 [1]) [nM]	Potency (IC50), KG-1 bioassay (IFN-γ production) (human IL-18 [2]) [nM]	Potency (IC50), PBMC assay (IL-12) (human IL-12 [3]) [nM]	Potency (IC50), KG-1 bioassay (IL-18) (human IL-18 [4]) [nM]	Binder
0.00693	0.18			DVD1218SL (anti-IL12/IL18 DVD-Ig) (bispecific antibody, human IgG1, kappa) heavy: QVQLVESGGGVVQPGRSLRLSCAASGFTFSSYGMHWVRQAPGKGLEWVAFIRYDGSNKYYADSVKGRFTISRDNSKNTLYLQMNSLRAEDTAVYYCKTHGSHDNWGQGTMVTVSSASTKGPEVQLVQSGTEVKKPGESLKISCKGSGYTVTSYWIGWVRQMPGKGLEWMGFIYPGDSETRYSPTFQGQVTISADKSFNTAFLQWSSLKASDTAMYYCARVGSGWYPYTFDIWGQGTMVTVSS[human IgG1 constant region left out] light: QSVLTQPPSVSGAPGQRVTISCSGSRSNIGSNTVKWYQQLPGTAPKLLIYYNDQRPSGVPDRFSGSKSGTSASLAITGLQAEDEADYYCQSYDRYTHPALLFGTGTKVTVLGQPKAAPEIVMTQSPATLSVSPGERATLSCRASESISSNLAWYQQKPGQAPRLFIYTASTRATDIPARFSGSGSGTEFTLTISSLQSEDFAVYYCQQYNNWPSITFGQGTRLEIKRTVAAPSVFIFPPSDEQLKSGTASVVCLLNNFYPREAKVQWKVDNALQSGNSQESVTEQDSKDSTYSLSSTLTLSKADYEKHKVYACEVTHQGLSSPVTKSFNRGEC
		0.217	0.12	1D4.1-ABT325 DVD-Ig (bispecific antibody, human IgG1, kappa) heavy: EVTLRESGPALVKPTQTLTLTCTFSGFSLSKSVMGVSWIRQPPGKALEWLAHIYWDDDKYYNPSLKSRLTISKDTSKNQVVLTMTNMDPVDTATYYCARRGIRSAMDYWGQGTTVTVSSASTKGPEVQLVQSGTEVKKPGESLKISCKGSGYTVTSYWIGWVRQMPGKGLEWMGFIYPGDSETRYSPTFQGQVTISADKSFNTAFLQWSSLKASDTAMYYCARVGSGWYPYTFDIWGQGTMVTVSS[human IgG1 constant region left out] light: DIVMTQSPDSLAVSLGERATINCKASQSVSNDVAWYQQKPGQPPKLLIYYASNRYTGVPDRFSGSGSGTDFTLTISSLQAEDVAVYYCQQDYNSPWTFGGGTKVEIKRTVAAPEIVMTQSPATLSVSPGERATLSCRASESISSNLAWYQQKPGQAPRLFIYTASTRATDIPARFSGSGSGTEFTLTISSLQSEDFAVYYCQQYNNWPSITFGQGTRLEIKRTVAAPSVFIFPPSDEQLKSGTASVVCLLNNFYPREAKVQWKVDNALQSGNSQESVTEQDSKDSTYSLSSTLTLSKADYEKHKVYACEVTHQGLSSPVTKSFNRGEC
0.00304	0.18			DVD1218LL (anti-IL12/IL18 DVD-Ig) (bispecific antibody, human IgG1, kappa, lambda) heavy: QVQLVESGGGVVQPGRSLRLSCAASGFTFSSYGMHWVRQAPGKGLEWVAFIRYDGSNKYYADSVKGRFTISRDNSKNTLYLQMNSLRAEDTAVYYCKTHGSHDNWGQGTMVTVSSASTKGPSVFPLAPEVQLVQSGTEVKKPGESLKISCKGSGYTVTSYWIGWVRQMPGKGLEWMGFIYPGDSETRYSPTFQGQVTISADKSFNTAFLQWSSLKASDTAMYYCARVGSGWYPYTFDIWGQGTMVTVSS[human IgG1 constant region left out] light: QSVLTQPPSVSGAPGQRVTISCSGSRSNIGSNTVKWYQQLPGTAPKLLIYYNDQRPSGVPDRFSGSKSGTSASLAITGLQAEDEADYYCQSYDRYTHPALLFGTGTKVTVLGQPKAAPSVTLFPPEIVMTQSPATLSVSPGERATLSCRASESISSNLAWYQQKPGQAPRLFIYTASTRATDIPARFSGSGSGTEFTLTISSLQSEDFAVYYCQQYNNWPSITFGQGTRLEIKRTVAAPSVFIFPPSDEQLKSGTASVVCLLNNFYPREAKVQWKVDNALQSGNSQESVTEQDSKDSTYSLSSTLTLSKADYEKHKVYACEVTHQGLSSPVTKSFNRGEC
